Structures are written as SMILES. Values after ≈ are worked out from the molar mass of the structure shown.

This experiment deals with strain Wood 46-3. Nature of the experiment: microbe, parasite or virus in culture. The conditions noted are these: Staphylococcus aureus, WOOD463.
Consider `COc1cccc(OC)c1C(=O)N[C@@H]1C(=O)N2[C@@H]1SC(C)(C)[C@@H]2C(=O)O` [Methicillin], for which the MIC came to 2 µg/mL (≈ 5.26 µM).
For the compound `Cc1onc(-c2ccccc2)c1C(=O)N[C@@H]1C(=O)N2[C@@H]1SC(C)(C)[C@@H]2C(=O)O` [Oxacillin], the MIC was 0.25 µg/mL (≈ 0.623 µM).
The same measure for `CN[C@H](CC(C)C)C(=O)N[C@H]1C(=O)N[C@@H](CC(N)=O)C(=O)N[C@H]2C(=O)N[C@H]3C(=O)N[C@H](C(=O)N[C@H](C(=O)O)c4cc(O)cc(O)c4-c4cc3ccc4O)[C@H](O)c3ccc(c(Cl)c3)Oc3cc2cc(c3O[C@@H]2O[C@H](CO)[C@@H](O)[C@H](O)[C@H]2O[C@H]2C[C@](C)(N)[C@H](O)[C@H](C)O2)Oc2ccc(cc2Cl)[C@H]1O` [Vancomycin]: 1 µg/mL (≈ 0.69 µM); for `C[C@@H]1O[C@@H]1P(=O)(O)O` [Fosfomycin]: 0.25 µg/mL (≈ 1.81 µM); for `CC[C@H]1OC(=O)[C@H](C)[C@@H](O[C@H]2C[C@@](C)(OC)[C@@H](O)[C@H](C)O2)[C@H](C)[C@@H](O[C@@H]2O[C@H](C)C[C@H](N(C)C)[C@H]2O)[C@](C)(O)C[C@@H](C)C(=O)[C@H](C)[C@@H](O)[C@]1(C)O` [Erythromycin]: 0.008 µg/mL (≈ 0.0109 µM).

The record behind these values is patent publication EP0814162A2 (priority 1996, dated 1997).
